# Laboratory results from paper PMC6451091.
# “And” between values parts separate entries of the source, which are not always exact repeats. Equal entries are not always repeated. The list shows a part of the results. For part of these data: At the low end of the ranking, values are background and their order means little. For part of these data: The protein was read in a cell extract, so binding may be indirect.
# What was measured:
# PU.1 (IVT) = PU.1 (IVT) (UniProt P17947); assay: protein-binding microarray (PBM); conditions: 20 mM HEPES pH 7.9, 100 mM NaCl, 1 mM DTT, 0.2 mg/mL BSA, 0.02% Triton X-100, 2% milk, 0.4 mg/mL salmon testes DNA; 1 h; temperature not stated; high values mean tight binding; double strand, one strand shown; sequences stand for … in GCCTAGCAC…GTGCTAGGTCTTGATTCGCTTGACGCTGCTG
# [1] = biological target: PU.1 (endogenous, THP-1 nuclear extract) (UniProt P17947); assay: nuclear extract protein-binding microarray (nextPBM); conditions: 20 mM HEPES pH 7.9, 100 mM NaCl, 1 mM DTT, 0.2 mg/mL BSA, 0.02% Triton X-100, 2% milk, 0.4 mg/mL salmon testes DNA; 1 h; temperature not stated; high values mean tight binding; double strand, one strand shown; sequences stand for … in GCCTAGCAC…GTGCTAGGTCTTGATTCGCTTGACGCTGCTG
# [2] = biological target: T1, FLI1 (endogenous, THP-1 nuclear extract) (UniProt Q01543); assay: as above; conditions: 20 mM HEPES pH 7.9, 100 mM NaCl, 1 mM DTT, 0.2 mg/mL BSA, 0.02% Triton X-100, 2% milk, 0.4 mg/mL salmon testes DNA; 1 h; temperature not stated; high values mean tight binding; double strand, one strand shown; sequences stand for … in GCCTAGCAC…GTGCTAGGTCTTGATTCGCTTGACGCTGCTG
# T1 sequence: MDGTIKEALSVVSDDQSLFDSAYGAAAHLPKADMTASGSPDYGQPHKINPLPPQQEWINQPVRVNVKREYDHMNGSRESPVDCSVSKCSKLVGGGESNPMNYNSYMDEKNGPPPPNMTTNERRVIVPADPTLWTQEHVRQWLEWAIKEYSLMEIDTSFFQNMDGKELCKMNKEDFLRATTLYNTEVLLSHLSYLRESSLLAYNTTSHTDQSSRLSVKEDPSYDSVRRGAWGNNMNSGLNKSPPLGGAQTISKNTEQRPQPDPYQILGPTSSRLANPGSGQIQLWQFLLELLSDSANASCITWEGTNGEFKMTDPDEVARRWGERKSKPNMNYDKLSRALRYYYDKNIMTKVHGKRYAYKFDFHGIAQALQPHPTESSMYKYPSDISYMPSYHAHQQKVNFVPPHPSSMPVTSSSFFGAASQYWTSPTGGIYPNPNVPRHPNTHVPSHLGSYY
# [3] = biological target: T1, FLI1 (endogenous, THP-1 nuclear extract); assay: nextPBM; conditions: 20 mM HEPES pH 7.9, 100 mM NaCl, 1 mM DTT, 0.2 mg/mL BSA, 0.02% Triton X-100, 2% milk, 0.4 mg/mL salmon testes DNA, 1 h; temperature not stated; double strand, one strand shown; sequences stand for … in GCCTAGCAC…GTGCTAGGTCTTGATTCGCTTGACGCTGCTG
# [4] = biological target: PU.1 (endogenous, THP-1 nuclear extract) (UniProt P17947); assay: nextPBM; conditions: 20 mM HEPES pH 7.9, 100 mM NaCl, 1 mM DTT, 0.2 mg/mL BSA, 0.02% Triton X-100, 2% milk, 0.4 mg/mL salmon testes DNA, 1 h; temperature not stated; double strand, one strand shown; sequences stand for … in GCCTAGCAC…GTGCTAGGTCTTGATTCGCTTGACGCTGCTG
# [5] = biological target: T2, IRF8 (endogenous, THP-1 nuclear extract) (UniProt Q02556); assay: nextPBM; conditions: 20 mM HEPES pH 7.9, 100 mM NaCl, 1 mM DTT, 0.2 mg/mL BSA, 0.02% Triton X-100, 2% milk, 0.4 mg/mL salmon testes DNA, 1 h; temperature not stated; double strand, one strand shown; sequences stand for … in GCCTAGCAC…GTGCTAGGTCTTGATTCGCTTGACGCTGCTG
# T2 sequence: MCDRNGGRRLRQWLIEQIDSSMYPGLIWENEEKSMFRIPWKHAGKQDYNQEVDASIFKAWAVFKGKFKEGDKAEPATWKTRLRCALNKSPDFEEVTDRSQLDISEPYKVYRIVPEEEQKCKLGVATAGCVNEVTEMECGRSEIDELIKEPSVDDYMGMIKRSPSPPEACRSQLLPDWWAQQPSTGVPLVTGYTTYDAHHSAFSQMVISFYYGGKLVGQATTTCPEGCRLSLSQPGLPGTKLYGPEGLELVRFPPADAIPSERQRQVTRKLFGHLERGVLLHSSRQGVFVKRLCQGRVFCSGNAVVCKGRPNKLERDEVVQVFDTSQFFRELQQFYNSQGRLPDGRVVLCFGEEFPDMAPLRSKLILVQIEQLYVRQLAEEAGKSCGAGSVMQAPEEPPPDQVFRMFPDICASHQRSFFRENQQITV
Sequence,binding signal (PU.1 (IVT)) [z-score],binding signal [1] [z-score],binding signal [2] [z-score],binding signal [3] [z-score],binding signal [4],binding signal [5] [z-score]
GAAAGGAGGAAGTGCTACTT,6.55,6.71,3.51,,,
AAAAAAAGGAACGGGCTAGA,1.48,1.25,0.244,,,
GAAAAGAGGAAGTCATCTTC,8.33,7.29,4.26,,,
GAAAAGAGGAAGTCCCATAG,7.76,7.32,3.97,,,
CAAGGAAGGAAGTGGACCAG,1.61,2.2,2.07,,,
AAGAGGAGGAAGTGCCTGAA,4.46,4.58,2.65,,,
AGAAGAAGGAAGTGAGAAAG,4.17,4.23,2.28,,,
TTGGAAAGGAAGTACTGTGG,2.39,1.75,2.04,,,
GGAAAGGGGAAGTGACTGCT,7.55,7.19,3.45,,,
ACGAGGAGGAAGTGGGGTAA,4.31,4.31,2.83,,,
CGTAAGGGGAAGTGCTAAAC,5.17,5.55,2.33,,,
GAAAAGGGGAAGTGCTGGGG,7.77,7.22,3.85,,,
AATATAGGGAAGTGCTTAAC,5.82,5.84,2.15,2.15,5.78 z-score,
CAGAGGGGGAAGTGCCAGGC,3.55,3.86,1.55,,,
TAAATAGGGAAGTGGTTCAA,6.61,6.61,2.99,,,
AAGCAGGGGAAGTGAAATAA,3.14,3.03,2.18,,,
GGATTAAGGAAGTGGAACTA,5.65,6.2,2.6,,,
AGTTTGGGGAAGTGATACAT,5.09,5.46,1.93,,,
CCTAAAGGGAAGTGTAAATA,3.27,3.1,1.67,,,
TAAAAGAGGAAGTGGCAGAT,,,4.62,,8.54 z-score,0.184
CAAATGAGGAAGTGAGACTT,,,3.73,,8.32 z-score,9.42
AAGAAGAGGAAGTGGCTTCC,6.81,6.99,3.93,,,
GTGGAGAGGAAGTGTTTGGG,3.46,3.58,2.86,,,
CTGATGAGGAAGTGGAACAA,4.89,5.84,2.45,,,
AAGAGGAGGAAGTGGAAGGG,4.25,4.43,2.57,,,
ATTTTAAGGAAGTGAAACCC,5.72,,3.2,3.2,7.89 z-score and 5.37 z-score and 5.61 z-score,
